PubChem BioAssay AID212 (DTP/NCI, 2004)
Records with an inconclusive call do not appear. The source holds more than one record for some entries. They are shown here; other results are not. The source may hold further records. The records of an entry are repeats (runs, samples, wells, individuals or studies).

System: BDF1 mice, colon carcinoma 38 sc, T/C %
Experiment: NCI In Vivo Anticancer Drug Screen. Data for tumor model Colon Carcinoma 38 (subcutaneous) in B6D2F1 (BDF1) mice
Conditions: endpoint: median tumor weight (est.), higher = larger tumour
Procedure, shortened: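 T/C readout: treated group (T) measurement over vehicle control group (C) measurement. Endpoint is survival or tumor size in mice bearing a transplanted tumor.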

[1] = dose: 50.0 mg/kg/injection, schedule: Q07DX002 (ip), vehicle: Klucel (hydroxypropylcellulose) (HPC)
[2] = dose: 100.0 mg/kg/injection, schedule: Q07DX002 (ip), vehicle: Klucel (hydroxypropylcellulose) (HPC)
[3] = dose: 12.5 mg/kg/injection, schedule: Q07DX002 (ip), vehicle: saline with Tween-80
[4] = dose: 50.0 mg/kg/injection, schedule: Q07DX002 (ip), vehicle: saline with Tween-80
[5] = dose: 225.0 mg/kg/injection, schedule: Q07DX002 (ip), vehicle: saline with Tween-80
[6] = dose: 25.0 mg/kg/injection, schedule: Q07DX002 (ip), vehicle: saline
[7] = dose: 100.0 mg/kg/injection, schedule: Q07DX002 (ip), vehicle: saline
[8] = dose: 200.0 mg/kg/injection, schedule: Q07DX002 (ip), vehicle: saline
[9] = dose: 25.0 mg/kg/injection, schedule: Q07DX002 (ip), vehicle: saline with Tween-80
[10] = dose: 200.0 mg/kg/injection, schedule: Q07DX002 (ip), vehicle: Klucel (hydroxypropylcellulose) (HPC)
[11] = dose: 800.0 mg/kg/injection, schedule: Q07DX002 (ip), vehicle: Klucel (hydroxypropylcellulose) (HPC)
[12] = dose: 25.0 mg/kg/injection, schedule: Q07DX002 (ip), vehicle: Klucel (hydroxypropylcellulose) (HPC)
[13] = dose: 50.0 mg/kg/injection, schedule: Q07DX002 (ip), vehicle: saline

CCCCc1ccc(-n2c(C)c(COC(=O)NC)c(COC(=O)NC)c2C)cc1
T/C (dose: 6.25 mg/kg/injection, schedule: Q07DX002 (ip), vehicle: Klucel (hydroxypropylcellulose) (HPC)): 124 % of control and 161 % of control | T/C [1]: 75 % of control and 111 % of control | T/C [2]: 84 % of control and 112 % of control

COc1ccc2[nH]c3c(c2c1)CCNC3CC(C)CCC=C(C)C (stereo unspecified)
T/C [2]: 56 % of control and 85 % of control

COC(=O)C12OCC34C(CC5C(C)=CC(=O)C(O)C5(C)C3C(O)C1O)OC(=O)C(OC(=O)CC(C)C)C24 (stereo unspecified)
T/C (dose: 0.25 mg/kg/injection, schedule: Q07DX002 (ip), vehicle: saline + alcohol): 91 % of control and 178 % of control

CCCCCCCC(=O)[O][Hg][CH2]C1COC([CH2][Hg][O]C(=O)CCCCCCC)CO1 (stereo unspecified)
T/C [3]: 75 % of control and 121 % of control | T/C [4]: 73 % of control and 110 % of control

ClC(Cl)=C(Cl)Cl
T/C (dose: 200.0 mg/kg/injection, schedule: Q07DX002 (ip), vehicle: other): 90 % of control and 118 % of control | T/C [5]: 90 % of control and 178 % of control | T/C (dose: 450.0 mg/kg/injection, schedule: Q07DX002 (ip), vehicle: saline with Tween-80): 84 % of control and 115 % of control

N=C(N)SCc1c2ccccc2c(CSC(=N)N)c2ccccc12
T/C [6]: 63 % of control and 89 % of control | T/C [7]: 68 % of control and 114 % of control | T/C [8]: 19 % of control and 53 % of control

COC1C(O)C(C)OC(OC2C(Oc3cccc4c(O)c5c(=O)oc6ccc(C)c7c(=O)oc(c34)c5c67)OC(C)C(O)C2O)C1O (stereo unspecified)
T/C [1]: 75 % of control and 159 % of control | T/C (dose: 50.0 mg/kg/injection, schedule: Q07DX003 (ip), vehicle: Klucel (hydroxypropylcellulose) (HPC)): 67 % of control and 104 % of control | T/C [2]: 60 % of control and 154 % of control

NC(=O)/C=C/C(=O)c1c(Cl)cccc1Cl
T/C (dose: 1.56 mg/kg/injection, schedule: Q07DX002 (ip), vehicle: saline with Tween-80): 33 % of control, 104 % of control, 108 % of control | T/C (dose: 3.12 mg/kg/injection, schedule: Q07DX002 (ip), vehicle: saline with Tween-80): 30 % of control, 113 % of control, 119 % of control | T/C (dose: 6.25 mg/kg/injection, schedule: Q07DX002 (ip), vehicle: saline with Tween-80): 55 % of control, 100 % of control, 104 % of control | T/C [3]: 32 % of control and 96 % of control | T/C [9]: 14 % of control and 160 % of control

CC(=O)Nc1ccc(/C=N/NC(N)=S)cc1
T/C (dose: 112.0 mg/kg/injection, schedule: Q07DX002 (ip), vehicle: saline with Tween-80): 57 % of control and 183 % of control | T/C [10]: 70 % of control and 120 % of control | T/C [5]: 87 % of control and 153 % of control | T/C [11]: 70 % of control and 154 % of control | T/C (dose: 1600.0 mg/kg/injection, schedule: Q07DX002 (ip), vehicle: Klucel (hydroxypropylcellulose) (HPC)): 77 % of control and 120 % of control

CC1c2ccccc2Cn2cc3c(c21)C(=O)c1cccc(OP(=O)(O)OCc2ccccc2)c1C3=O (stereo unspecified)
T/C (dose: 1.0 mg/kg/injection, schedule: Q01DX020 (ip), vehicle: saline): 31 % of control and 99 % of control | T/C (dose: 2.0 mg/kg/injection, schedule: Q01DX020 (ip), vehicle: saline): 18 % of control and 113 % of control | T/C (dose: 4.0 mg/kg/injection, schedule: Q01DX020 (ip), vehicle: saline): 19 % of control and 112 % of control

CC(=O)OCC1OC(n2ccc(N)nc2=O)C(OC(C)=O)C1OC(C)=O (stereo unspecified)
T/C [7]: 68 % of control and 112 % of control | T/C [8]: 56 % of control and 124 % of control | T/C (dose: 400.0 mg/kg/injection, schedule: Q07DX002 (ip), vehicle: saline): 38 % of control and 72 % of control

C/C(=N/NC(N)=S)c1ccc2ccccc2c1
T/C [4]: 28 % of control and 61 % of control

CC(=O)N(C)C
T/C (dose: 450.0 mg/kg/injection, schedule: Q07DX002 (ip), vehicle: saline): 66 % of control and 111 % of control

CN(C(=S)S(=O)(=O)C12CC3CC(CC(C3)C1)C2)c1ccccc1
T/C [12]: 115 % of control and 150 % of control

Cc1[nH]c(=O)[nH]c(=O)c1N(CCF)CCCl
T/C (dose: 8.0 mg/kg/injection, schedule: Q07DX002 (ip), vehicle: Klucel (hydroxypropylcellulose) (HPC)): 67 % of control and 98 % of control

CC(=O)OCc1cc(=O)n(C)c2c3c4c(cc12)c(C)cc(=O)n4CO3
T/C (dose: 100.0 mg/kg/injection, schedule: Q07DX003 (ip), vehicle: Klucel (hydroxypropylcellulose) (HPC)): 47 % of control and 85 % of control

S=C(Nc1ccc(Cl)c(Cl)c1)N1c2ccccc2-n2cccc2C1c1cccnc1 (stereo unspecified)
T/C [2]: 86 % of control and 154 % of control

C=CC(=O)NCNC(=O)C=C
T/C [6]: 48 % of control and 98 % of control | T/C [13]: 84 % of control and 117 % of control

COC1=CC(=O)C(OC)=C(OC)C1=O
T/C [9]: 72 % of control and 187 % of control

CS(C)=O
T/C (dose: 3.0 grams/kg/injection, schedule: Q07DX003 (ip), vehicle: saline): 83 % of control and 120 % of control

O=C1c2ccccc2C(=O)c2c(NCCNCCO)ccc(NCCNCCO)c21
T/C (dose: 1.5 mg/kg/injection, schedule: Q07DX003 (ip), vehicle: saline): 50 % of control and 188 % of control | T/C (dose: 3.12 mg/kg/injection, schedule: Q07DX003 (iv), vehicle: Klucel (hydroxypropylcellulose) (HPC)): 22 % of control and 83 % of control | T/C (dose: 6.0 mg/kg/injection, schedule: Q07DX003 (ip), vehicle: saline): 58 % of control and 110 % of control | T/C (dose: 6.25 mg/kg/injection, schedule: Q07DX003 (iv), vehicle: Klucel (hydroxypropylcellulose) (HPC)): 48 % of control and 77 % of control | T/C (dose: 12.5 mg/kg/injection, schedule: Q07DX003 (iv), vehicle: Klucel (hydroxypropylcellulose) (HPC)): 20 % of control and 55 % of control

O=C1CN(CN2CCOCC2)C(=O)CN1CN1CCOCC1
T/C [6]: 62 % of control and 113 % of control | T/C [8]: 78 % of control and 152 % of control

Cc1c2ccncc2c(C)c2c1[nH]c1ccccc12
T/C (dose: 12.5 mg/kg/injection, schedule: Q07DX003 (ip), vehicle: Klucel (hydroxypropylcellulose) (HPC)): 73 % of control and 117 % of control | T/C [12]: 55 % of control and 115 % of control | T/C (dose: 25.0 mg/kg/injection, schedule: Q07DX003 (ip), vehicle: Klucel (hydroxypropylcellulose) (HPC)): 48 % of control and 90 % of control | T/C (dose: 40.0 mg/kg/injection, schedule: Q07DX002 (ip), vehicle: distilled water + Tween-80): 37 % of control and 94 % of control | T/C [1]: 54 % of control and 96 % of control

Cc1ccc(S(=O)(=O)OCOS(=O)(=O)c2ccc(C)cc2)cc1
T/C [11]: 56 % of control and 82 % of control

CC(=O)Oc1ccc[nH]c1=O
T/C (dose: 400.0 mg/kg/injection, schedule: Q07DX002 (ip), vehicle: saline with Tween-80): 72 % of control and 123 % of control

O=Cc1ccc([N+](=O)[O-])s1
T/C [3]: 62 % of control and 109 % of control

Nc1ncn(C2OC(CO)C(O)C2O)c(=O)n1 (stereo unspecified)
T/C (dose: 1.0 mg/kg/injection, schedule: Q07DX002 (ip), vehicle: saline): 76 % of control, 85 % of control, 122 % of control | T/C [6]: 75 % of control, 93 % of control, 105 % of control | T/C [7]: 55 % of control, 77 % of control, 92 % of control | T/C [8]: 57 % of control, 61 % of control, 97 % of control

CCC(C)C(=O)O[C@H]1C(=O)O[C@@H]2C[C@H]3C(C)=CC(=O)[C@@H](O)[C@]3(C)[C@H]3[C@@H](O)[C@H](O)[C@@]4(C)OC[C@]32[C@@H]14 (stereo partly specified)
T/C (dose: 2.5 mg/kg/injection, schedule: Q07DX002 (ip), vehicle: saline + alcohol): 38 % of control and 103 % of control

Nc1ccccc1N
T/C [2]: 74 % of control and 104 % of control | T/C [10]: 50 % of control and 93 % of control

CCN(CC)CCC(=O)c1ccccc1
T/C [6]: 40 % of control and 88 % of control | T/C [13]: 110 % of control and 152 % of control
